# Measurements reported in PMC4336329 (PLoS ONE, 2015).
# Out of some 310,000 compounds screened, about 14,000 (4.5%) showed an effect of 50% or more. Effects have a minus sign here. Some of the results follow.
# Biological target: human ether-à-go-go-related gene (hERG) potassium channel (human, UniProt Q12809)
# Test: primary screen, population patch clamp on CHO cells stably expressing hERG
# 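Further: peak tail current of the secondary pulse compared with the same well before compound.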
# Sequence of human ether-à-go-go-related gene (hERG) potassium channel (Q12809 whole entry, looked up): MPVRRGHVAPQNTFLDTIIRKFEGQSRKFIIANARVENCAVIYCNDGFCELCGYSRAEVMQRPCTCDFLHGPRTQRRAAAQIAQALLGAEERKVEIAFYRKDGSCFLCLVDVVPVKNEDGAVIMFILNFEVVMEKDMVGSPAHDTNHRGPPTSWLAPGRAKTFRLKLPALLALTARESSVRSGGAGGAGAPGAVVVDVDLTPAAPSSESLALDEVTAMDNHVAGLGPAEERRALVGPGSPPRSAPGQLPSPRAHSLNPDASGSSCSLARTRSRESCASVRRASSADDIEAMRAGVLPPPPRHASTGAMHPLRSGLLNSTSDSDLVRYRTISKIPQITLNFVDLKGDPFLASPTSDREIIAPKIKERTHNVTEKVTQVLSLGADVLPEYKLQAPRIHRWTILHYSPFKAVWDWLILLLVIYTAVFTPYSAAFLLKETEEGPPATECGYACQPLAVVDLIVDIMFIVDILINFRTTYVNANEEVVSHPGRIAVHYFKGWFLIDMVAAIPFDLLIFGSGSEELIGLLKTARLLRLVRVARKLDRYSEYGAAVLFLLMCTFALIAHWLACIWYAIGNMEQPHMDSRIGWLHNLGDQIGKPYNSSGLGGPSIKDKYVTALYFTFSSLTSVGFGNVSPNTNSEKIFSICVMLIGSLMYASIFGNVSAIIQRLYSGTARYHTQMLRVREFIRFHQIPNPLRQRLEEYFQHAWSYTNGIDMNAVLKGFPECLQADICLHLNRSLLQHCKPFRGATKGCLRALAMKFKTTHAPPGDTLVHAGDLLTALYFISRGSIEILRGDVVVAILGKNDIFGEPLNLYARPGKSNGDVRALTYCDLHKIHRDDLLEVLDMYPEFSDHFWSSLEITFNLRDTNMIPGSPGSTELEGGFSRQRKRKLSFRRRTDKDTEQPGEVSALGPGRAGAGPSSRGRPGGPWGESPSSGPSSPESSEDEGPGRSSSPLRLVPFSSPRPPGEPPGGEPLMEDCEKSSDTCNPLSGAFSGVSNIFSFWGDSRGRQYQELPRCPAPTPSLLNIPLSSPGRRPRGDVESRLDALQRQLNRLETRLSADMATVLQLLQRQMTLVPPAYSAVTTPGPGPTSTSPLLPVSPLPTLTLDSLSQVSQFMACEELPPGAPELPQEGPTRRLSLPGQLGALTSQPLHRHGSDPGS
row,Structure (SMILES),"hERG current change (%, negative = inhibition) at 10uM [%]"
1,Cc1ccc(/C(N)=N/OC(=O)COc2ccccc2Cl)cc1,5.39
2,CN1CCN(c2ccccc2N)CC1,6.95
3,CC(C)S(=O)(=O)c1cnc(-c2ccccn2)nc1N,2.73
4,COC(=O)[C@@]12CCCCN1[C@H](c1ccc(-c3ccccc3)cc1)[C@@H]1C(=O)N(C)C(=O)[C@@H]12.O=C(O)C(F)(F)F,6
5,CCCN(CCC)C(=O)c1ccc2c(c1)N(Cc1ccccc1)C(=O)CS2=O (stereo not drawn),-9.19
6,CC(=O)N(C(C)=O)c1nc(-c2ccccc2)cn1/N=C/c1cccc([N+](=O)[O-])c1,-2.52
7,CS(=O)(=O)c1ccc(C(=O)Nc2ccc(S(=O)(=O)N3CCCCC3)cc2)cc1,-9.09
8,O=C(CNC(=O)N1CC(=O)Nc2ccccc21)NCCc1c[nH]c2ccccc12,-7.16
9,COc1ccc(-c2ccc(N(C)C)cc2)cc1[C@H]1[C@@H]2C=CCC[C@@]2(C)C(=O)N1Cc1ccccc1,11.1
10,COC(=O)CNC(=O)C(C)NC(=O)OCc1ccccc1 (stereo not drawn),9.59
11,CC(=O)OCCCNc1cc(Sc2nc3ccccc3s2)c2nonc2c1[N+](=O)[O-],-3.06
12,NC(=O)c1nsc(C(=O)N(Cc2ccc(F)cc2)C(C(=O)NCC2CCCO2)c2ccc(F)cc2)c1N (stereo not drawn),-14.4
13,CC(NC(=O)Cn1cc(C(F)(F)F)ccc1=O)c1ccc(F)cc1 (stereo not drawn),13.3
14,Cc1cccc(OCC(=O)NCc2cc(C)nc3ccccc23)c1,-9.05
15,Nc1nc2n(n1)C(=O)CC(c1ccccc1)N2 (stereo not drawn),22.9
16,O=[N+]([O-])c1ccccc1/C=C/C=N/N1CCCCC1,11.7
17,CCC(=O)Oc1ccc2c(C)cc(=O)oc2c1C(=O)c1ccccc1,3.76
18,Cc1ccccc1NC(=O)Nc1cc(S(N)(=O)=O)ccc1C,8.03
19,CCOc1cc(CO)cc(Br)c1OCC(=O)O,-6.91
20,Cn1nc(C(C)(C)C)c([N+](=O)[O-])c1C(=O)NC(C)(C)C,8.48
21,O=C(Nc1c(Cl)cc(Cl)cc1C(=O)NCc1cccnc1)c1ccc(Cl)cc1Cl,-4.95
22,O=C(NC(NC(=O)c1c(F)cccc1F)c1ccc([N+](=O)[O-])cc1)c1c(F)cccc1F,-43.8

row,Structure (SMILES),"hERG current change (%, negative = inhibition) at 10uM [%]"
1,C=CCSc1nnc(-c2sc(-c3ccccc3)nc2C)n1C,-33.6
2,CC(=O)Nc1ccc(CN2CCCC(C(=O)c3cccc(C(F)(F)F)c3)C2)cc1 (stereo not drawn),-20.7
3,COc1ccc(OC)c(NC(=O)C2CCCN2C(=O)C2CCC(C)CC2)c1 (stereo not drawn),-2.29
4,CCCCCCCCCS(=O)(=O)Nc1cc(C)ccn1,2.47
5,COC(=O)CCSCC(=O)N1N=C(c2ccc(OC)cc2)CC1c1cccc(OC)c1OC (stereo not drawn),9.13
6,Cc1ccc(S(=O)(=O)N2CCCC2CNC(=O)C(=O)NCCN2CCOCC2)cc1 (stereo not drawn),16.5
7,CC(C)OP(C)(=O)CN1CCN(CP(C)(=O)OC(C)C)CC1 (stereo not drawn),10.8
8,C/C(=N\NC(=O)c1ccco1)c1cc2ccccc2o1,-9.09
9,CCOC(=O)/C=c1\s/c(=C\c2ccc(C(F)(F)F)cc2)c(=O)n1CC(=O)NCc1ccco1,5.47
10,O=C(Nc1ccc(C(=O)N2CCCC2)cc1)Nc1ccc(Cl)cc1Cl,13.2
11,O=C(CSc1nncs1)NC1CCCCCCC1,0.331
12,O=[N+]([O-])c1ccc(/C([O-])=C(/C(=S)NCc2ccco2)[n+]2ccccc2)cc1,-30.9
13,Cl.Clc1ccc(OCCOCCN2CCc3ccccc3C2)c(Cl)c1,-69.8
14,COC(=O)c1ccc(N(C(=O)CNC(=O)c2ccco2)C(C(=O)NC2CCCC2)c2ccco2)cc1 (stereo not drawn),2.49
15,Cc1ccccc1C(=O)N1CCC(C(=O)Oc2ccc(C#N)cc2)CC1,-24.8
16,Cc1ccc(-n2nc(C(=O)N/N=C/c3cccc(C(F)(F)F)c3)c3ccccc3c2=O)cc1C,10.8
17,Fc1ccc(Cn2nnnc2C(c2cccs2)N2CCCCCC2)cc1 (stereo not drawn),-11.2
18,O=S(=O)(Nc1ccc2nc(N3CCOCC3)sc2c1)c1ccc(Cl)cc1,-29.4
19,COc1cc(OC)nc(NC(=S)NC(=O)c2ccccc2)n1,23.1
20,Cc1cccc(C)c1NC(=O)CCS(=O)(=O)c1cccc2nonc12,15.7
21,CC(=O)N(C)c1ccc(NC(=O)COc2ccc(Br)cc2C)cc1,-29.6
22,CC(=O)Nc1c(Cl)n(C(C)=O)c2ccccc12,6.5

row,Structure (SMILES),"hERG current change (%, negative = inhibition) at 10uM [%]"
1,Cc1nc(NC(=O)/C=C/c2ccccc2)sc1C(=O)N(C)C,-6.44
2,Cc1nc2cc(CO)ccc2n1C,-8.19
3,[O-][n+]1onc2c1CCc1nnc(-c3ccccc3)cc1-2,7.6
4,CC1=C(C(=O)Nc2cc(C)ccn2)C(c2cnn(C)c2)C2=C(CC(c3ccccc3)CC2=O)N1 (stereo not drawn),-22.3
5,O=C(CCCCCn1c(=S)[nH]c2ccc(N3CCOCC3)cc2c1=O)NCc1ccccc1Cl,4.65
6,CCc1c(C)nc(SCC(=O)Nc2cccc(Br)c2)[nH]c1=O,16.3
7,O=C(Nc1ccccc1)c1ccc2nc(-c3ccco3)c(-c3ccco3)nc2c1,4.03
8,O=C(CSc1nc2ccccc2c(=O)n1CCCO)NCc1ccccc1,-41.5
9,Oc1ccccc1-c1nnc(-c2ccc(C(F)(F)F)cc2)o1,14.5
10,O=C(N/N=C/c1cc2c(cc1Cl)OCO2)c1cccc(Br)c1,-2.95
11,Cc1nnc(-c2ccc(Oc3ccc(Br)cc3)c([N+](=O)[O-])c2)o1,3.38
12,Cc1cc(C)cc(OCCCn2ccnc2)c1,13.3
13,CCOc1ccc2[nH]c3c(NCC(C)C)ncnc3c2c1,-8.65
14,CCOC(=O)c1[nH]c2ccccc2c1NC(=S)Nc1ccccc1C,5.67
15,Cc1ccc(OCC(O)CNC(C)c2ccccc2)cc1C.Cl (stereo not drawn),-20.7
16,CC1(C)Cc2c(sc3nnn(Cc4ccc(Cl)cc4)c(=O)c23)CO1,15.4
17,CC(C)c1cccc(C(C)C)c1OCCn1ccnc1,-16
18,CN(C)CCCn1c(=O)n(Cc2ccco2)c(=O)c2c3c(sc21)CCCCC3,-71.1
19,CCOc1nnc(C)c2c(C)n(-c3ccc(Cl)cc3)nc12,-10.1
20,O=C(c1ccc(F)c(S(=O)(=O)N2CCOCC2)c1)N(c1ccccc1)c1ccccn1,1.35
21,Cc1ccc(-c2nn(C(C)(C)C)c3ncnc(NS(=O)(=O)c4ccc([N+](=O)[O-])cc4)c23)cc1,-37.1
22,COc1ccccc1-n1nnnc1SC(C)C(=O)NC1CCCC1 (stereo not drawn),6.08

row,Structure (SMILES),"hERG current change (%, negative = inhibition) at 10uM [%]"
1,CCOc1ccc2nc(SCC(=O)Nc3ccc(S(=O)(=O)N4CCCC4)cc3)c(C)cc2c1,2.2
2,CC1(C)Cc2ccccc2-c2nc(-c3ccccc3)oc(=O)c21,2.64
3,Cc1ccc2nc3c(cc(C(=O)NCCc4ccccc4)c(=N)n3CCN3CCOCC3)c(=O)n2c1,-76.7
4,CCC(NC(=O)COc1cc2c(c3oc(=O)c(C)c(C)c13)CCC(C)(C)O2)C(=O)O (stereo not drawn),6.16
5,Cc1cccc(-c2nc3ccccc3c(=O)n2NC(=O)c2ccc([N+](=O)[O-])c(C)c2)c1,14.5
6,COC(=O)c1ccc(NC(=O)CSC2=NCCN2)cc1.Cl,-5.04
7,CC(C)[C@H](NC(=O)c1ccco1)C(=O)OCC(=O)c1ccc2c(c1)NC(=O)CO2,-15.9
8,NS(=O)(=O)c1ccc(NC(=O)C2(c3ccccc3)CCCC2)cc1,10.3
9,Cc1ccc(NC(=O)CSCC(=O)O)c(C)c1,19
10,O=C(/C=C/c1ccccc1Cl)NCc1ccccc1,10.2
11,CC(C)=CCN1CCN(Cc2ccc(C#CC(C)(C)O)s2)CC1CCO (stereo not drawn),-1.88
12,CCOc1ccccc1N1CCN(C(=O)c2cc3cc(OC)ccc3[nH]2)CC1,-3.66
13,Cc1cc(C)c(C#N)c(Oc2ccc(O)cc2)n1,-2.22
14,N#Cc1cccc(-n2nnnc2-c2ccc3c(c2)OCO3)c1,2.69
15,CN(CC(=O)Nc1ccccc1Cl)C(=O)COC(=O)C1CCN(c2ccc(C(F)(F)F)cn2)CC1,-29.8
16,COc1ccc(OC)c(CCNC(=O)c2sc3nc4n(c(=O)c3c2C)CCC4)c1,-22.8
17,CCOc1ccc(CN2CCNC(=O)C2CC(=O)OC)cc1 (stereo not drawn),19.4
18,CCCCOC(=O)c1cc(Cl)c(O)c(OC)c1,9.65
19,O=C(c1noc2c1CCCC2)N1CCOCC1,11.2
20,CC(C)c1ccc(OCC(=O)N(Cc2ccco2)C2CCS(=O)(=O)C2)cc1 (stereo not drawn),-79.4
21,O=C(CN1CCOCC1)Nc1ccc(Cl)cn1,20.6
